# Reference: PubChem BioAssay AID463173 (ICCB-Longwood Screening Facility, Harvard Medical School, 2010)
# Hit rate of the full screen: of about 52,000 compounds, about 1,700 (3.3%) were called active. No stated cut-off is given here; in the data, active means survival mostly below about 52% (no sharp cut-off); inactive means mostly above about 56%. Some of the results follow.
# Tested on: Wild type
# Assay: growth inhibition of S. aureus wild type versus tarO mutant, primary screen, teichoic acid synthesis inhibitors, RN4220, OD600 (AID 463173)
# Conditions: S. aureus RN4220 wild type/DeltatarO growth, OD600, 18 h, active compounds read low, screened at 18.75 µg/mL (by protocol)
row,SMILES,survival
1,Cc1ccc(-c2cc3nccc(-c4cc([N+](=O)[O-])ccc4O)n3n2)cc1,inactive: 58%
2,CCCOc1ccc(-c2nc3ccc(Br)cc3c(=O)o2)cc1,inactive: 76%
3,CCCCNC(=O)CSc1nc2n[nH]c(C)c2c(=N)n1-c1cccc(C)c1,inactive: 69%
4,CCOc1ccc(S(=O)(=O)NCc2nc3cccnc3n2Cc2ccccc2OC)cc1,inactive: 85%
5,CCOC(=O)C1CCN(C(=O)c2ccc3c(c2)sc2nc(-c4ccc(OC)cc4)cn23)CC1,inactive: 85%
6,Cc1c(C(=O)OC2CCCCCC2)[nH]c2c1C(=O)CC(c1ccccc1)C2 (centres undefined),inactive: 92%
7,Cc1nc2ccc(S(=O)(=O)NC(CC(C)C)C(=O)NCc3ccc(Cl)cc3)cc2s1 (centres undefined),inactive: 68%
8,O=C(Cn1c(=O)n(Cc2ccccc2)c(=O)c2sc3ccccc3c21)Nc1ccc(F)cc1,inactive: 68%
9,CCOC(=O)C1CCCN(c2cc(C)nc3cc(-c4ccc(Cl)cc4)nn23)C1 (centres undefined),inactive: 112%
10,CC1=C(C(=O)N2CCN(c3ccc(Cl)cc3)CC2)C2(CCC(C)CC2)OC1=O (centres undefined),inactive: 124%
11,CCN(CC)C(=O)Cn1c(=O)sc2ccccc21,inactive: 105%
12,CCCCN(CC)CCCNC(=O)c1cc2c(=O)oc3ccc(C)cc3c2s1,inactive: 97%
13,Cc1ccc(C)c(Cn2c(=O)n(CCCC(=O)NCCc3ccc(Cl)cc3)c(=O)c3ccccc32)c1,inactive: 94%
14,COc1ccc(-c2nc3sc(CCNC(=O)C(=O)Nc4ccc(C)c(C)c4)c(C)n3n2)cc1,inactive: 117%
15,O=C(COc1ccc(Cl)cc1)NCC(c1cccs1)S(=O)(=O)c1ccc(F)cc1 (centres undefined),inactive: 85%
16,CCOc1ccc(-c2nonc2NC(=O)c2ccco2)cc1OCC,inactive: 111%
17,COC(=O)c1ccccc1NC(=O)COC(=O)c1ccco1,inactive: 108%
18,CCOC(=O)c1ccc(NC(=O)CC2C(=O)N(c3cccc(C)c3)C(=O)N2CCOC)cc1 (centres undefined),inactive: 82%
19,CC(C)c1ccc(NC(=O)c2cnc3sc(N4CCCC4)nn3c2=O)cc1,inactive: 99%
20,CCOc1ccccc1CNC(=O)c1cc2c(=O)n(Cc3ccco3)ccc2nc1C,inactive: 88%
21,COc1ccc(OC)c(-c2csc(-c3c(N)c(C(=O)c4ccc(Cl)cc4)n4ccccc34)n2)c1,inactive: 119%
22,CCOc1cc(CNC(=O)NC2COc3ccccc3C2)cc(OCC)c1OCC (centres undefined),inactive: 148%
23,Cn1c(=O)[nH]c(=O)c2[nH]c(N(CCO)CCO)nc21,inactive: 113%

row,SMILES,survival
1,Cc1ccc(OCC(=O)Nc2nnc(SCc3cc(=O)n4cccc(C)c4n3)s2)cc1,inactive: 64%
2,Cc1ccc(NC(=O)CSc2nc3c(sc4ccccc43)c(=O)n2CCCC(=O)NC2CCCC2)cc1C,inactive: 86%
3,CC(C)COc1ccc(C(=O)Nc2nnc(S(=O)(=O)N(C)Cc3ccco3)s2)cc1,inactive: 88%
4,COc1cccc(CNC(=O)c2cc3c(=O)n(Cc4cccnc4)ccc3nc2C)c1,inactive: 148%
5,COc1ccc(C(=O)Nc2nnc(S(=O)(=O)N(C)c3ccc(C)cc3)s2)cc1,inactive: 78%
6,CCc1ccccc1Nc1ncnc2c1cnn2-c1ccc(C)cc1C,inactive: 83%
7,COc1ccc(C(=O)Nc2nnc(S(=O)(=O)N3CCN(c4ccc(F)cc4)CC3)s2)cc1,inactive: 77%
8,CCc1cccc(NC(c2ccccc2)c2nnc(-c3ccccc3F)o2)c1 (centres undefined),active: 1%
9,CCOC(=O)c1c(C)[nH]c(C)c1S(=O)(=O)N1CCCC(C(=O)NCc2ccccc2Cl)C1 (centres undefined),inactive: 67%
10,CCCc1cc(=O)oc2c(C)c3c(cc12)CN(CCc1ccc(Cl)cc1)CO3,inactive: 63%
11,Cc1ccc2oc(-c3cc(NC(=O)CC(C)C)ccc3Cl)nc2c1,inactive: 87%
12,CCC(C)NC(=O)Cn1c(=O)n(-c2ccc(OC)c(OC)c2)c(=O)c2ccccc21 (centres undefined),inactive: 87%
13,CC1Oc2ccccc2N(CC(=O)NCC2CCCO2)C1=O (centres undefined),inactive: 102%
14,Cc1ccc2c(c1)Cc1c(nc(-c3ccc(F)cc3)nc1SCC(=O)N1CCCCC1)O2,inactive: 75%
15,Cc1ccc(Nc2c(-c3cccnc3)nc3ccc(Cl)cn23)cc1,inactive: 88%
16,CCOC(=O)C1CCN(C(=O)c2c(C)nn(-c3ccc(F)cc3)c2-n2cccc2)CC1,inactive: 65%
17,COc1ccc2cc(CCNS(=O)(=O)c3ccc(C)cc3)c(=O)[nH]c2c1,inactive: 72%
18,O=C(O)CCNC(=O)C(c1ccccc1)c1ccccc1,inactive: 100%
19,O=C(Cn1nnc(-c2ccc(S(=O)(=O)N3CCCC3)cc2)n1)Nc1ccccc1-n1cccc1,inactive: 108%
20,CCCc1nnc(NC(=O)Cc2coc3c(C)c(C)ccc23)s1,inactive: 104%
21,O=S(=O)(c1ccc(-c2csc(=Nc3ccc(F)cc3)n2CCCCCCO)cc1)N1CCCC1,inactive: 55%
22,Cc1cccc(OCC(=O)Nc2ccc3c(c2)nc(CN2CCCCC2)n3C)c1,inactive: 87%
23,O=C(COCc1cc(-c2cccs2)on1)NCc1ccc(F)cc1,inactive: 73%

row,SMILES,survival
1,O=C(Nc1ccc(Cl)cc1)c1ccc(-n2cnnc2)cc1,inactive: 72%
2,Cc1ccc(-n2ncc3c(N4CCN(Cc5ccccc5)CC4)ncnc32)cc1Cl,inactive: 72%
3,CCc1cc(=O)[nH]c(SCc2nc(-c3cccc(Cl)c3)no2)n1,inactive: 22%
4,CC(C)c1ccc(NC(=O)C2CCCN2S(=O)(=O)c2ccc3nc(-c4ccccc4)[nH]c3c2)cc1 (centres undefined),inactive: 64%
5,O=C(Cn1nc(C(F)(F)F)c2c1CCC2)NC1CCCC1,inactive: 108%
6,Cc1ccc(Cl)cc1N1CCN(S(=O)(=O)c2ccc3c(c2)C(C(C)C)C(=O)N3)CC1 (centres undefined),inactive: 97%
7,CCOCCCn1c(SCC(=O)Nc2ccc(CC)cc2)nc2ccccc2c1=O,inactive: 85%
8,Cc1cccc(NC(=O)CC(C)(C)C)c1,inactive: 103%
9,COc1ccc(C(=O)N(Cc2sccc2C)C2CCS(=O)(=O)C2)cc1 (centres undefined),inactive: 86%
10,COc1cc(NC(=O)Cn2ccc3ccccc3c2=O)cc(OC)c1OC,inactive: 91%
11,Cc1ccc(-n2ncc(C(=O)NCCN3CCN(C)CC3)c2C2CCN(C(=O)OC(C)(C)C)CC2)cc1,inactive: 74%
12,CCc1ccc(C2C(C(=O)Nc3ccccc3OC)=C(C)Nc3nc(SCc4ccccc4)nn32)cc1 (centres undefined),inactive: 78%
13,CCOc1ccc(CNC(=O)CN2N=C(c3ccccc3)CCC2=O)cc1OC,inactive: 121%
14,Cc1ccc(CNC(=O)CSc2nc3ccsc3c(=O)n2-c2ccc(Br)cc2)cc1,active: 14%
15,Cn1c(C(=O)NCCc2ccccc2)cc2sc(Cl)cc21,inactive: 118%
16,Cc1nc(C)c(-c2ccc(SCC(=O)Nc3cccc(C)c3C)nn2)s1,inactive: 78%
17,Cc1ccc(Cn2c(CNC(=O)c3ccc(Cl)c([N+](=O)[O-])c3)nc3cccnc32)cc1,inactive: 79%
18,CCCc1ccc(NC(=O)C2CCCN(c3cnccn3)C2)cc1 (centres undefined),inactive: 82%
19,CCOc1cc(CNC(=O)Cn2ncn3c(cc4cc(F)ccc43)c2=O)cc(OCC)c1OCC,inactive: 83%
20,CCc1ccc(NC(=O)C2CCN(S(=O)(=O)c3cccc(-c4noc(C)n4)c3)CC2)cc1,inactive: 90%
21,Cc1ccccc1C(=O)NNc1ncnc2c1cnn2-c1cccc(Cl)c1,inactive: 73%
22,CC(=O)c1ccc(NC(=O)CC2Nc3cc(C)c(C)cc3NC2=O)cc1 (centres undefined),inactive: 78%
23,CCC1Oc2ccc(C)cc2N(CC(=O)N2CCN(c3ccccc3OC)CC2)C1=O (centres undefined),inactive: 63%

row,SMILES,survival
1,Cc1noc(C)c1S(=O)(=O)N(CC(=O)NCCc1ccc(Cl)cc1)c1ccc(C(C)C)cc1,inactive: 85%
2,CCOc1ccc(Nc2nc(C)c(NC(=O)c3cccc(F)c3)c(Nc3ccc(OCC)cc3)n2)cc1,inactive: 141%
3,COc1cccc(-c2oc3ccc(C)cc3c(=O)c2O)c1,inactive: 78%
4,CC1CCN(S(=O)(=O)c2ccc(NC(=O)CSc3nnnn3C)cc2)CC1,inactive: 108%
5,N#Cc1cc2cc3c(cc2nc1SCC(=O)NC1CCCCC1)OCCO3,inactive: 103%
6,CCOC(=O)c1c(S(=O)(=O)N2CCCC(C(=O)Nc3ccccn3)C2)c(C)n(C)c1C (centres undefined),inactive: 82%
7,COc1cc(CNC(=O)C2CCCCN2S(=O)(=O)c2ccc(F)cc2)cc(OC)c1OC (centres undefined),inactive: 77%
8,CCc1cccc(NC(=O)CN2Cc3ccccc3C2=O)c1,inactive: 131%
9,CCOc1ccc(C2CC(=O)Nc3cc4c(cc32)OCO4)cc1OC (centres undefined),inactive: 124%
10,COc1ccc(-c2cc(C)no2)cc1S(=O)(=O)NCc1cccs1,inactive: 93%
11,COc1ccccc1CNC(=O)c1cccn1-c1nnc(N2CCCCC2)s1,active: 10%
12,COc1ccc(CN2CCc3c(c(=O)n4ncc(C(=O)N5CCN(c6ccc(F)cc6)CC5)c4n3C)C2)cc1,inactive: 78%
13,COC(=O)c1c(NC(=O)Cc2coc3cc(C)ccc23)sc2c1CCCC2,inactive: 85%
14,Cc1ccc(CNC(=O)C2CCN(S(=O)(=O)c3ccc(F)cc3)CC2)cc1,inactive: 73%
15,CC(=O)N1CCc2c(sc3c2c(=O)n(-c2ccc(C)cc2)c(=O)n3Cc2c(F)cccc2Cl)C1,inactive: 133%
16,COc1ccc(CNC(=O)c2cc(-c3ccc(OC)cc3)nc3n[nH]c(-c4cccc([N+](=O)[O-])c4)c23)cc1,inactive: 86%
17,Cc1ccc2cccc(NC(=O)COc3ccccc3Cl)c2n1,inactive: 134%
18,Cc1ccc(C)c(Cn2c(CCCNC(=O)C3CCCCC3)nc3ccccc32)c1,inactive: 91%
19,CCCOc1cccc(C2c3c(oc4ccccc4c3=O)C(=O)N2c2nncs2)c1 (centres undefined),inactive: 98%
20,Cc1ccc(-c2nc(CS(=O)CC(=O)N3CCN(c4cccc(Cl)c4)CC3)c(C)o2)cc1 (centres undefined),active: 5%
